{
  "source": "PubChem BioAssay AID2147",
  "about": "(National Center for Advancing Translational Sciences (NCATS), 2009)",
  "note": "Where “and” joins values, the source holds several entries; their conditions need not be identical. Equal values may be shown once. Out of some 230,000 compounds screened, about 3,600 (1.6%) were called active. This list was built around the results that the source calls inconclusive (neither active nor inactive); the mix of calls is not that of the screen. Calls come from the whole dose curve; as a rule, active = well fitted inhibition curve with a large enough effect (not every such curve was filed as active); inconclusive = small, poorly fitted or top-dose-only effect, or another doubt; inactive = no such curve, though single readings can be large or run the other way. Potencies beside an inconclusive call are fits to weak or partial responses and may not hold up. Note: nearly all actives have a fitted effect of over 50% in size. Potency is the fitted concentration of half-maximal effect; tags give direction and shape of the fitted curve.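 Throughout, for activity change, negative = inhibition: 0% = wells with enzyme and -100% = buffer wells without enzyme.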",
  "data": [
    {"target": "Lysine-specific demethylase 4E (Homo sapiens) (UniProt B2RXH2)", "sequence (B2RXH2 whole entry, looked up, the tested form may be a part)": "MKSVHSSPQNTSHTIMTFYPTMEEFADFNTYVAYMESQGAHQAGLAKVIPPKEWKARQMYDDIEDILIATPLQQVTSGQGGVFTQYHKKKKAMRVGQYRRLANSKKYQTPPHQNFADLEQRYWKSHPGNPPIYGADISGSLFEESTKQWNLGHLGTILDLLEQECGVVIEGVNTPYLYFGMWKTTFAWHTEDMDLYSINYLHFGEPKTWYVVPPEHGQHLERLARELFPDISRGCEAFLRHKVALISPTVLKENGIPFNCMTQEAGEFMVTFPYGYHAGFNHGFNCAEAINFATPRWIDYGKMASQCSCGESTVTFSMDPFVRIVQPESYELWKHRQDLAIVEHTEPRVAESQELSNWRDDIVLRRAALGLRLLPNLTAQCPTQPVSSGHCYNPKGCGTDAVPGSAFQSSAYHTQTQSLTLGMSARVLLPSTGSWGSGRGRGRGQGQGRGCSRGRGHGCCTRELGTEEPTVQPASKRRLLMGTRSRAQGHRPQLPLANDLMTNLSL", "assay": "qHTS Assay for Inhibitors of Human Jumonji Domain Containing 2E (JMJD2E)", "conditions": "JMJD2E catalytic domain, FDH-coupled NADH fluorescence (FDH is formaldehyde dehydrogenase); series mostly up to 57.1 µM; activity change, negative = inhibition: at the top concentration", "values": [
      {"compound": "Cc1ccc(C)c(NC(=O)c2ccccc2Sc2ccc([N+](=O)[O-])cc2Cl)c1", "activity change, negative = inhibition": "inactive: 7.2%"},
      {"compound": "Cc1ccc(Cn2nnc(C(=O)Nc3cccc(C)c3C)c2N)cc1", "Potency": "inconclusive: 35.5 µM [inhibitor, single point]"},
      {"compound": "CC(=O)Nc1nc(C)c(-c2csc(Nc3ccc(O)cc3)n2)s1", "Potency": "inconclusive: 12.6 µM [inhibitor, partial curve]"},
      {"compound": "CCOC(=O)c1ccccc1NC(=O)c1ccc(F)cc1", "Potency": "inconclusive: 39.8 µM [inhibitor, single point]"},
      {"compound": "c1ccc(-c2nc(N3CCN(c4ccccc4)CC3)nc(-n3ccnc3)n2)cc1", "activity change, negative = inhibition": "inactive: 3.83%"},
      {"compound": "O=c1oc2ccccc2cc1-c1csc(NN=C2CCCCC2)n1", "Potency": "inconclusive: 22.4 µM [inhibitor, partial curve]"},
      {"compound": "COc1cccc(/C=N/NC(=O)C(c2ccncc2)N2CCOCC2)c1", "note": "(stereo not given)", "activity change, negative = inhibition": "inactive: -20.6%"},
      {"compound": "CCC(C)(C)n1nnnc1C(c1cc2ccc(OC)cc2[nH]c1=O)N1CCN(C2CCCCC2)CC1", "note": "(stereo not given)", "Potency": "inconclusive: 35.5 µM [inhibitor, single point]"},
      {"compound": "CN1/C(=C\\C(=O)CSc2nnc(NCc3ccccc3)s2)C(C)(C)c2ccccc21", "activity change, negative = inhibition": "inactive: -2.69%"},
      {"compound": "COc1c(O)c(O)c2oc(-c3ccccc3)cc(=O)c2c1OC", "Potency": "active: 31.6 µM"},
      {"compound": "CCNC(=O)/C(C#N)=C/c1c(N(Cc2ccccc2)Cc2ccccc2)nc2ccccn2c1=O", "Potency": "inconclusive: 20 µM [inhibitor, single point]"},
      {"compound": "CCn1cc(C(=O)O)c(=O)c2cc(F)c(N3CCN(S(=O)(=O)c4ccc5c(c4)OCCO5)CC3)cc21", "Potency": "inconclusive: 1.41 µM [inhibitor, partial curve]"},
      {"compound": "CCCNC(=O)N1N=C(c2ccc(N)cc2)c2cc3c(cc2[C@H]1C)OCO3", "Potency": "inconclusive: 28.2 µM [inhibitor, partial curve]"},
      {"compound": "O=C1c2oc3ccccc3c(=O)c2C(c2ccc(O)cc2)N1c1nccs1", "note": "(stereo not given)", "activity change, negative = inhibition": "inactive: -1.66%"},
      {"compound": "Cc1cc(C)nc(OC(=O)c2ccc(Cl)cc2Cl)n1", "activity change, negative = inhibition": "inactive: -1.25%"},
      {"compound": "CC(C)Sc1n[nH]c2nc3c(c(=O)n12)C1(CCCC1)Cc1ccccc1-3", "Potency": "inconclusive: 11.2 µM [inhibitor, partial curve]"},
      {"compound": "O=C(CC1(O)C(=O)N(Cc2cccc3ccccc23)c2ccccc21)c1cccnc1", "note": "(stereo not given)", "activity change, negative = inhibition": "inactive: 2.8%"},
      {"compound": "O=C(COC(=O)C(Cc1ccccc1)NC(=O)c1ccc(Cl)cc1)c1ccc(Cl)cc1", "note": "(stereo not given)", "activity change, negative = inhibition": "inactive: -4.03%"},
      {"compound": "CCCC(=O)Nc1cccc(-c2cn3cccnc3n2)c1", "Potency": "inconclusive: 28.2 µM [inhibitor, partial curve]"},
      {"compound": "COc1ccc(C2Nc3cc(OC)ccc3-n3cccc32)cc1", "note": "(stereo not given)", "Potency": "inconclusive: 28.2 µM [inhibitor, partial curve]"},
      {"compound": "COc1cc(CN2CCC(CO)(CCOc3ccccc3)CC2)cc(OC)c1", "activity change, negative = inhibition": "inactive: 7.5%"},
      {"compound": "COCC(C)N=C1NN=C(c2cc(C)n(Cc3ccccc3Cl)c2C)CS1", "note": "(stereo not given)", "Potency": "inconclusive: 39.8 µM [inhibitor, single point]"},
      {"compound": "COCCCNC(=O)CCC(=O)Nc1ccc2nc(N3CCOCC3)cc(C)c2c1", "Potency": "inconclusive: 28.2 µM [inhibitor, partial curve]"},
      {"compound": "Cc1cc(C(=O)CSc2nc3ccccc3[nH]2)c(C)n1C", "activity change, negative = inhibition": "inactive: -1.76%"},
      {"compound": "CC[C@H](C)[C@@H](NC(=O)O[C@@H]1C(=O)c2cc(OC)ccc2O[C@H]1c1ccc(OC)c(Br)c1)C(=O)OC", "Potency": "inconclusive: 28.2 µM [inhibitor, partial curve] and inconclusive: 35.5 µM [inhibitor, single point]"},
      {"compound": "CCOc1ccccc1-c1nc(CN2CCCC2c2nccs2)c(C)o1", "note": "(stereo not given)", "Potency": "inconclusive: 39.8 µM [inhibitor, single point]"},
      {"compound": "Cc1nn(C(C)C(=O)O)c(=O)c2c1sc1ccccc12", "note": "(stereo not given)", "Potency": "inconclusive: 22.4 µM [inhibitor, partial curve]"},
      {"compound": "Cc1ccoc1C(=O)NCCCNC(=O)c1occc1C", "Potency": "inconclusive: 11.2 µM [inhibitor, partial curve]"},
      {"compound": "CC(C)(NO)/C(=N\\O)c1ccc(Cl)cc1", "activity change, negative = inhibition": "inactive: -0.805%"},
      {"compound": "CCOC(=O)c1nn(-c2ccc(Cl)cc2)c2nc(-c3ccc(C)cc3)c(C#N)c(=O)n12", "Potency": "inconclusive: 28.2 µM [inhibitor, partial curve]"},
      {"compound": "O=C(O)c1[nH]c2ccccc2c1NS(=O)(=O)Cc1ccccc1", "Potency": "inconclusive: 28.2 µM [inhibitor, partial curve]"},
      {"compound": "COc1cccc(CN(C)c2nc(-c3cccs3)nc3ccccc23)c1", "Potency": "inconclusive: 31.6 µM [inhibitor, single point]"},
      {"compound": "CC(=Nc1ccccc1)c1sc2ccccc2c1O", "Potency": "inconclusive: 28.2 µM [inhibitor, single point]"},
      {"compound": "CCc1nc(CN2CCN(c3cc(C(F)(F)F)ccn3)CC2)c(C)[nH]1", "Potency": "inconclusive: 35.5 µM [inhibitor, single point]"},
      {"compound": "O=C(Cn1ncn2c(cc3ccccc32)c1=O)NCCC1=CCCCC1", "Potency": "inconclusive: 28.2 µM [inhibitor, single point]"},
      {"compound": "CC(=O)c1ccc(OCC(O)CN2CCN(CCN3C(=O)c4cccc5cccc(c45)C3=O)CC2)cc1", "note": "(stereo not given)", "Potency": "inconclusive: 31.6 µM [inhibitor, single point]"},
      {"compound": "CN(c1ccccc1)S(=O)(=O)c1ccc(Cl)c(C(=O)Nc2ccc(N3CCOCC3)cc2)c1", "activity change, negative = inhibition": "inactive: 0.606%"},
      {"compound": "COCCCNC(=O)CNC(=O)c1cn(-c2ccccc2OC)c(=O)c2ccccc12", "Potency": "inconclusive: 31.6 µM [inhibitor, single point]"},
      {"compound": "N#Cc1nc(Cc2ccccc2)oc1NCCN1CCOCC1", "activity change, negative = inhibition": "inactive: -0.603%"},
      {"compound": "CC1=C(C(=O)OCc2ccccc2)C(c2cccs2)NC(=O)N1CCCC(=O)O", "note": "(stereo not given)", "Potency": "inconclusive: 28.2 µM [inhibitor, single point]"},
      {"compound": "COCCNc1cc(C)nc2c3c(C)cc(C)nc3nn12", "Potency": "inconclusive: 25.1 µM [inhibitor, partial curve]"},
      {"compound": "COc1cc(NC2=Nc3cccc4cccc2c34)cc(OC)c1OC", "activity change, negative = inhibition": "inactive: -4.85%"},
      {"compound": "CCN(CC)C(=O)CN1C(=O)c2cccc3cccc(c23)C1=O", "Potency": "inconclusive: 31.6 µM [inhibitor, partial curve]"},
      {"compound": "Cn1c2ccccc2c2cnn(CC(=O)Nc3cccc(F)c3)c(=O)c21", "Potency": "inconclusive: 28.2 µM [inhibitor, partial curve]"},
      {"compound": "Cc1ccc(CN2CCSCC2)c(C)c1", "activity change, negative = inhibition": "inactive: 7.31%"},
      {"compound": "Cc1nn(C(=O)c2nn(C)cc2[N+](=O)[O-])c(C)c1Br", "activity change, negative = inhibition": "inactive: 2.3%"},
      {"compound": "COc1ccc(CNC(=O)c2ccccc2[N+](=O)[O-])cc1", "activity change, negative = inhibition": "inactive: -9.49%"},
      {"compound": "Cc1oc(-c2cccc(C(F)(F)F)c2)nc1CN1CCN(c2ccccn2)CC1", "Potency": "inconclusive: 25.1 µM [inhibitor, single point]"},
      {"compound": "CCOC(=O)c1c(N)n(C2CC(C)(C)NC(C)(C)C2)c2nc3ccccc3nc12", "Potency": "inconclusive: 31.6 µM [inhibitor, partial curve]"},
      {"compound": "O=c1cc(/C=C/c2ccccc2)oc2ccccc12", "Potency": "inconclusive: 35.5 µM [inhibitor, single point]"},
      {"compound": "CC1=CC(c2ccccc2)n2nc(NC(=O)CCC(=O)O)nc2N1", "note": "(stereo not given)", "Potency": "inconclusive: 28.2 µM [inhibitor, partial curve]"},
      {"compound": "Cc1cccn2c(=O)c3cc(C(=O)NC(C)C)c(=N)n(Cc4ccncc4)c3nc12", "Potency": "inconclusive: 14.1 µM [inhibitor, partial curve]"},
      {"compound": "Cc1ccc(NC(=O)COC(=O)CCC(=O)c2ccc(C(C)(C)C)cc2)c([N+](=O)[O-])c1", "activity change, negative = inhibition": "inactive: 8.43%"},
      {"compound": "CCN(CC)C(=O)c1cc([N+](=O)[O-])cc2c1-c1ccc([N+](=O)[O-])cc1C2=C(C#N)C#N", "Potency": "inconclusive: 39.8 µM [inhibitor, single point]"},
      {"compound": "Cc1cccc(OCC(=O)N(C)CCc2ccccn2)c1", "Potency": "inconclusive: 39.8 µM [inhibitor, single point]"},
      {"compound": "COc1ccc(N=C(NN)c2ccc3ccccc3n2)cc1", "Potency": "inconclusive: 31.6 µM [inhibitor, single point]"},
      {"compound": "COc1ccc2cc3c(N)nn(C(=O)c4cccc([N+](=O)[O-])c4)c3nc2c1", "activity change, negative = inhibition": "inactive: -1.16%"},
      {"compound": "O=C1NN(c2ccc(Cl)c(Cl)c2)C(=O)/C1=C/c1cccc(OC(=O)c2cccs2)c1", "activity change, negative = inhibition": "inactive: 3.58%"},
      {"compound": "Cc1cccc(C(=O)O)c1NC(=O)c1ccc(F)cc1", "Potency": "inconclusive: 22.4 µM [inhibitor, single point]"},
      {"compound": "Cc1ccc(Cn2c(/C=C/c3ccco3)nc3ccccc32)cc1", "Potency": "inconclusive: 31.6 µM [inhibitor, partial curve]"},
      {"compound": "Cc1cc(C)c(NC(=O)CSc2nnc(-c3ccncc3)n2Cc2ccco2)c(Cl)c1", "activity change, negative = inhibition": "inactive: -1.25%"},
      {"compound": "COc1ccc(-c2cc(C(=O)Nc3nc4c(C)cccc4s3)c3ccccc3n2)cc1OC", "Potency": "inconclusive: 35.5 µM [inhibitor, single point]"},
      {"compound": "Cc1ccc2[nH]c(=O)c(CN(C(=O)c3cccs3)c3ccccc3)cc2c1", "activity change, negative = inhibition": "inactive: -0.811%"},
      {"compound": "O=c1c2c(nc3cc(-c4ccccc4)[nH]n13)CCS2", "Potency": "inconclusive: 14.1 µM [inhibitor, partial curve]"},
      {"compound": "COC(=O)c1cn(C)c2ccc(S(=O)(=O)N3CCOCC3)cc2c1=O", "activity change, negative = inhibition": "inactive: -15.7%"},
      {"compound": "NC(=O)COc1ccc(=O)n(-c2ccccc2)n1", "activity change, negative = inhibition": "inactive: -1.26%"},
      {"compound": "CC(C)(C)c1ccc(OC2=CS(=O)(=O)c3ccccc32)cc1", "Potency": "inconclusive: 39.8 µM [inhibitor, single point]"},
      {"compound": "CCOC(=O)c1oc2ccc3c(c2c1C)C(=O)CC1(CCN(C(=O)OCC)CC1)O3", "Potency": "inconclusive: 28.2 µM [inhibitor, single point]"},
      {"compound": "COc1ccc(C(=O)C2CCCN(Cc3cccn3-c3nccs3)C2)cc1OC", "note": "(stereo not given)", "Potency": "inconclusive: 25.1 µM [inhibitor, single point]"},
      {"compound": "O=C(O)CCC(NC(=O)c1cncc(O)c1)C(=O)O", "note": "(stereo not given)", "Potency": "inconclusive: 25.1 µM [inhibitor, single point]"}
    ]}
  ]
}
